Data as given in PubChem BioAssay AID1487 (National Center for Advancing Translational Sciences (NCATS), 2009).
About 25 (0.01%) of roughly 200,000 compounds were called active. Not shown: some 23% with an inconclusive outcome. Calls follow the shape of the dose curve; as a rule, active = well fitted inhibition curve with a large enough effect in the signal ratio, with a control signal flat (not every such curve was filed as active); inconclusive = small, poorly fitted or top-dose-only effect, or effect the other way, or a change in a side signal; inactive = flat fitted curve, though single readings scatter; the % refers to the signal ratio. The entries are a selection whose mix differs from that of the whole data set.

Test: qHTS Assay for Modulators of Lamin A Splicing
Settings: HeLa LMNA splicing GFP/RFP minigene ratio, 48 h; series mostly up to 46.1 µM; ratio change, negative = inhibition: at the top concentration
Description: NCGC Assay Overview: Hutchinson-Gilford Progeria Syndrome (HGPS) is a pediatric premature aging disease caused by a spontaneous mutation in the lamin A/C (LMNA) gene. The mutation activates a cryptic splice site in the LMNA pre-mRNA which results in production of a pre-lamin A protein that cannot be processed properly. The mutant protein accumulates in the nucleus and negatively affects numerous cellular functions. Correction of the splicing defect in HGPS patient cells using a targeted oligonucleotide (exo11) leads to reversal of the cellular disease phenotypes. To identify small molecule modulators of aberrant LMNA splicing, a homogenous assay was constructed in HeLa cells that used a GFP containing minigene to report on correction of aberrant splicing in lamin A and a RFP (DsRed2) to report on cell viability, uniformity and nonspecific effects on the assay signal. This assay was adapted to laser-scanning microplate cytometry (Acumen, TTP Labtech) where miniaturization of the assay to a 1,536-well plate format was possible. References: Bowen, W. P.; Wylie, P. G. Application of Laser-Scanning Fluorescence Microplate Cytometry in High Content Screening. Assay Drug Dev Technol 2006;4:209-221. Scaffidi P, Misteli T. Reversal of the cellular phenotype in the premature aging disease Hutchinson-Gilford progeria syndrome. Nat.
NCGC Assay Protocol Summary: Reagents/Controls: Stable clones expressing DsRed2 and lamin A-EGFP were generated by Cell and Molecular Technologies in S3 HeLa cells. HeLa cells were prepared for the assay when they were 70-90% confluent. The cells were counted and resuspended in Opti-MEM I (no phenol red; Gibco), 2% FBS, 1% penicillin/ streptomycin (Gibco) at concentration of 120 cells/uL concentration. The suspension was passed through a Falcon basket filter with pore size 40um (Beckton Dickson). Control titrations: column […] 1536-well plate contained a sixteen point titration (1:2 dilutions) in duplicate of ancitabine (Sigma: A8598) beginning at 40 uM final concentration. Column 2 contained a sixteen point titration (1:2 dilutions) of cycloheximide beginning at 1.4 mM final concentration. Column 3 contained ancitabine at 40 uM and column 4 contained was the vehicle control (0.5% DMSO final concentration). Assay Steps: 5 uL of HeLa cells were plated in Aurora LoBase black clear bottom (cyclic-olefin polymer) 1536-well plates at a final density of 600 cells/well. Controls and library compounds were added with a 1536-well pin array using the Kalypsys pin-tool. The plates were then incubated for 48 hrs in a cell-culture incubator (37 °C; 5% CO2, 98% humidity). Following incubation the plates were read on the Acumen Explorer using the 488 nm laser. Data was collected on objects between 10 and 100 um in size. Cell objects were defined by a 15 um width x 10 um depth filter. The ratio of the total object intensity in PMT1 (500-530 nm emission; GFP) over PMT3 (575-640 nm emission; RFP) was calculated for analysis. Keywords: NIH Roadmap, MLSCN, MLI, MLSMR, qHTS, NCGC, lamin A, Progeria, RNA splicing.
% is scaled to controls: 0 for no effect and ±100 for the full control effect.

Ratio change, negative = inhibition, inactive:
CC(C)CCN(C(=O)Nc1ccccc1)C(C)c1cccs1 (stereo not given) -7%
CC(C)n1cc(/C=C2\NC(=O)N(c3cccc(Cl)c3)C2=O)c2ccccc21 -27.2%
Cc1c(C)c2c(c(C)c1O)CC[C@@](C)(CCC[C@@H](C)CCC[C@@H](C)CCCC(C)C)O2 -3.04%
CN(C)CC[C@H](c1ccc(Cl)cc1)c1ccccn1 -6.98%
COc1ccccc1NC(=O)/C=C/C(=O)O 5.36% [at 46 µM]
CN(C)CCCN1c2ccccc2CCc2ccc(Cl)cc21 -7.77%
CC(=O)OCC(=O)[C@@]1(OC(C)=O)[C@H](C)C[C@H]2[C@@H]3C[C@H](F)C4=CC(=O)C=C[C@@]4(C)[C@]3(F)[C@H](O)C[C@@]21C 5.8%
CCOC(=O)Nc1ccc2c(c1)N(C(=O)CCN1CCOCC1)c1ccccc1S2 -29.1% [at 46 µM]
Cc1ccc(C(=O)C[n+]2cc(-c3ccccc3)n3c2CCCCC3)cc1 -18.4%
O=C(NCc1ccccn1)[C@@H]1C[C@H]1[C@@H](NP(=O)(c1ccccc1)c1ccccc1)c1ccccc1 8.74%
Nc1ccc(S(=O)(=O)NC(=O)c2ccccc2)cc1 -3.43%
CCN1C(=O)/C(=C2/Sc3ccccc3N2CCCS(=O)(=O)O)SC1=S -5.76% [at 46 µM]
CC(C)NC[C@H](O)c1ccc(NS(C)(=O)=O)cc1 2.67%
O=C1OC(c2ccc(O)cc2)(c2ccc(O)cc2)c2ccccc21 -16.3%
CN(C)C1C(=O)C(C(N)=O)=C(O)[C@@]2(O)C(=O)C3=C(O)c4c(O)ccc(Cl)c4[C@@H](O)C3C[C@@H]12 (stereo not given in full) -18%
Cc1c(Cl)cccc1Nc1ccccc1C(=O)O -9.26%
c1ccc(CC2=NCCN2)cc1 6.87%
O=C(O)CCc1nc(-c2ccccc2)c(-c2ccccc2)o1 -6.19%
O=C1c2ccccc2C(=O)C1c1ccccc1 -12.9%
C=C(C)[C@H]1CC=C(C)/C(=N/NC(=O)CNc2ccccc2OC)C1 4.16%
CCOC(=O)N1CCC(=C2c3ccc(Cl)cc3CCc3cccnc32)CC1
C[C@]12CCC(=O)C=C1CC[C@@H]1[C@@H]2C(=O)C[C@@]2(C)[C@H]1CC[C@]2(O)C(=O)CO
CCOC(=O)OC(C)OC(=O)C1N2C(=O)C(NC(=O)C(N)c3ccccc3)C2SC1(C)C (stereo not given) -5.27%
O=C(O)/C=C\C(=O)NCc1ccccc1 10.4%
O=S(=O)(O)C1CCNCC1 -6.03%
CN1C2CCC1CC(OC(=O)c1c[nH]c3ccccc13)C2 (stereo not given)
O=C(O)Cc1ccc(-c2ccccc2)cc1 -0.922%
Cc1cncn1CCc1nc2c3ccccc3nc(SCC(=O)Nc3cccc(Cl)c3)n2n1 -9.22% [at 46 µM]
CCN(CC)CCOC(=O)C1(C2CCCCC2)CCCCC1
CN(C)CCCN1c2ccccc2Sc2ccc(C(F)(F)F)cc21
COc1cc(C(=O)OCCCN2CCCN(CCCOC(=O)c3cc(OC)c(OC)c(OC)c3)CC2)cc(OC)c1OC -24.3%
COC(=O)C1=C(C)NC(C)=C([N+](=O)[O-])C1c1ccccc1C(F)(F)F (stereo not given) -6.86%
CCCCN(CCCC)CCCOC(=O)c1ccc(N)cc1 -2.44%
CC(=O)NC(CC(=O)O)C(=O)NC(CCC(=O)O)C(=O)O (stereo not given) -7.97%
CCCc1cc(C(N)=S)ccn1 -3.69%
NNCCc1ccccc1 -2.26%
CN1CCN(CC/C=C2/c3ccccc3Sc3ccc(S(=O)(=O)N(C)C)cc32)CC1
CN1CCC(=C2c3ccccc3C=Cc3ccccc32)CC1 -22.3%
Cc1ccsc1/C=C/C1=NCCCN1C -8.95%
OC(CCCN1CCCCC1)(c1ccccc1)c1ccccc1 -9.43%
CCN(CC)CCOC(=O)C(c1ccccc1)c1ccccc1 -0.688%
Oc1c(C=C2N=c3ccccc3=N2)sc(=S)n1C1CCCCC1 -10%
NC(N)=Nc1nc(CSCC/C(N)=N/S(N)(=O)=O)cs1 -4.01%
Cc1cc(-c2ccccc2)nnc1NCCN1CCOCC1 -11.5%
N[C@H](C(=O)N[C@@H]1C(=O)N2C(C(=O)O)=C(Cl)CS[C@@H]12)c1ccccc1 -17.6%
O=C(N/C(=C/c1cccs1)C(=O)N1CCOCC1)c1cccs1 -1.64% [at 46 µM]
CC(=O)c1cc2c(cc1N/C(=N/S(=O)(=O)c1ccc(C)cc1)c1ccc(Cl)cc1)OCO2 -5.98% [at 46 µM]
CCCCOc1cc(CC2CNC(=O)N2)ccc1OC (stereo not given) 18.7%
Cc1onc(-c2c(F)cccc2Cl)c1C(=O)N[C@H]1C(=O)N2[C@H]1SC(C)(C)[C@H]2C(=O)O -9.53%
Cc1ccc(C(=O)N/C(=C/c2ccc(-c3ccc(Br)cc3)o2)C(=O)NC2CCS(=O)(=O)C2)cc1 (stereo not given) -5.35%
CN1Cc2c(N)cccc2C(c2ccccc2)C1 (stereo not given) 5.27%
Nc1c2c(nc3ccccc13)CCCC2O (stereo not given) 3.21%
COc1ccccc1OCC(O)COC(N)=O (stereo not given) -1.16%
CC[C@@H]1OC(=O)[C@H](C)[C@H](O[C@@H]2C[C@](C)(OC)[C@H](O)[C@H](C)O2)[C@H](C)[C@H](O[C@@H]2O[C@@H](C)C[C@@H](N(C)C)[C@@H]2O)[C@](C)(O)C[C@H](C)[C@@H]2N[C@H](COCCOC)O[C@H]([C@@H]2C)[C@]1(C)O -14.3%
CCCC(=O)OC1CC(C)N(C(=O)c2ccccc2)c2ccc(C)cc21 (stereo not given) -21.2%
CC(=O)OCC(=O)[C@@]1(OC(C)=O)[C@@H](C)C[C@H]2[C@@H]3C[C@H](F)C4=CC(=O)C=C[C@]4(C)[C@@]3(F)[C@@H](O)C[C@@]21C -1.32%
CC(N=C(NC#N)Nc1ccncc1)C(C)(C)C (stereo not given) -3.99%
c1ccc(CN(CC2=NCCN2)c2ccccc2)cc1
COC(=O)[C@@H]1[C@@H]2C[C@H]3c4[nH]c5cc(OC)ccc5c4CCN3C[C@@H]2C[C@H](OC(=O)c2cc(OC)c(OC)c(OC)c2)[C@H]1OC -13.7%
O=C(O)CN(CCN(CC(=O)O)CC(=O)O)CCN(CC(=O)O)CC(=O)O -16.7%
COc1ccccc1N1CCN(CCCNc2cc(=O)n(C)c(=O)n2C)CC1
CCC(C)n1ncn(-c2ccc(N3CCN(c4ccc(OCC5COC(Cn6cncn6)(c6ccc(Cl)cc6Cl)O5)cc4)CC3)cc2)c1=O (stereo not given) -0.607% [at 46 µM]
Cc1cccc(Nc2ccccc2C(=O)O)c1C 5.58%
Fc1ccc([C@@H]2CCNC[C@H]2COc2ccc3c(c2)OCO3)cc1 -16.8% [at 46 µM]
Cc1cc(C)c(NC(=O)Cn2cnc3c(oc4ccccc43)c2=O)c(C)c1 -4.12% [at 46 µM]
